Assay results published in PMC4336329 (PLoS ONE, 2015).
Screen size: about 310,000 compounds; about 2,200 (0.71%) showed an effect of 50% or more. Effects have a minus sign here. The list shows a part of the results.

What follows are compounds tested against human ether-à-go-go-related gene (hERG) potassium channel (human, UniProt Q12809) (assay: primary screen, population patch clamp on CHO cells stably expressing hERG).
Sequence of human ether-à-go-go-related gene (hERG) potassium channel (Q12809 whole entry, looked up): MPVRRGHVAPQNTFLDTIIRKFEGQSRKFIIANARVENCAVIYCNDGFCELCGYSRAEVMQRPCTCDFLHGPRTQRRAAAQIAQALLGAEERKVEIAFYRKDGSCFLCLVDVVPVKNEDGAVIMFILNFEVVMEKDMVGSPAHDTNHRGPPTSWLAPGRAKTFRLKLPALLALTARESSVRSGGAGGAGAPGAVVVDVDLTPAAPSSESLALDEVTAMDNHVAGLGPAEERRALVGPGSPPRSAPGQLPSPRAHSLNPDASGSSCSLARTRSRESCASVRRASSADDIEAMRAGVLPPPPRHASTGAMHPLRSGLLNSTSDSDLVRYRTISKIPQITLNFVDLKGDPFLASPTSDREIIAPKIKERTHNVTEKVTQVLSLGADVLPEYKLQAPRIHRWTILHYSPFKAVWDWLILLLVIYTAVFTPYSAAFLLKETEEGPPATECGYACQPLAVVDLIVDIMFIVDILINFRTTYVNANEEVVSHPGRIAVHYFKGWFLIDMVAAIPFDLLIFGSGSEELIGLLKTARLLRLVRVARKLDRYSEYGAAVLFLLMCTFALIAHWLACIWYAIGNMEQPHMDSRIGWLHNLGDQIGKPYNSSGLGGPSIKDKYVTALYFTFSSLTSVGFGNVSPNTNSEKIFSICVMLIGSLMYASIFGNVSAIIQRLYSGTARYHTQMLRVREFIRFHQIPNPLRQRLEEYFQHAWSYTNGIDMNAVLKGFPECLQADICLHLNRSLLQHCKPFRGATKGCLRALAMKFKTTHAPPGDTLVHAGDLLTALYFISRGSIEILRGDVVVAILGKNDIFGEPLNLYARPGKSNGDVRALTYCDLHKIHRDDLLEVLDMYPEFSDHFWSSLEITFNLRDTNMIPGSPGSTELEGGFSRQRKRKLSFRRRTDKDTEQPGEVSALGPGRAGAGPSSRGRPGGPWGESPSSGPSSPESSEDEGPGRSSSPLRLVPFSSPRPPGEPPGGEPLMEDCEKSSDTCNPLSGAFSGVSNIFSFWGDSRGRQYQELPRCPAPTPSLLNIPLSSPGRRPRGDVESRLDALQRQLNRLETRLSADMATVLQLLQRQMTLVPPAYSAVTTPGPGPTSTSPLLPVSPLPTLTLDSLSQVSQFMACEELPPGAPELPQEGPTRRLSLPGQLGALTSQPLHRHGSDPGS

SMILES | hERG current change (%, negative = inhibition) at 1uM [%]
Cc1ccc(NC(=O)CN2CCc3ccccc3C2)cc1C | 14
CCNc1nc(NC(C)CC)nc(ON=C(C)C)n1 (stereo not shown) | 9.5
O=c1c(Cc2ccc(Cl)cc2)c(O)ccn1Cc1ccncc1 | 9.77
COc1ccc(OC(=O)c2cc(S(=O)(=O)N3CCCC3)ccc2Cl)cc1 | 6.02
CCN=C1SC(CC(=O)Nc2sc3c(c2C#N)CCCC3)C(=O)N1CC (stereo not shown) | -7.54
COc1cc(C(=O)OCc2ccccc2C#N)ccc1OCC(=O)N1CCOCC1 | -2.55
O=C(NCCC1=CCCCC1)C1CCCN(S(=O)(=O)c2ccc(F)cc2)C1 (stereo not shown) | 16.8
O=C(NC1CC1)c1cc2cc(Br)ccc2s1 | 14.7
Cc1c(OC(C(=O)O)c2ccccc2)ccc2c1oc(=O)c1ccccc12 (stereo not shown) | 16.6
COc1ccc(C(C(=O)NC2CCCC2)N2CCc3ccccc32)cc1 (stereo not shown) | 14.5
CCOc1ccc(C(=O)SC2=NCCS2)cc1 | 12.4
O=C(CCNc1n[nH]c(=O)[nH]c1=O)N1CCCCC1 | 1.63
CCOc1ccc(S(=O)(=O)N2CCOCC2)c2ccccc12 | 14.9
Cc1cccc(N2CCN(CCCNC(=O)C3CCCN(c4ncnc5c4nc4n5CCCCC4)C3)CC2C)c1 (stereo not shown) | -17
O=C(N/N=C/c1ccc2cccnc2c1)c1nc2ccccc2c(=O)[nH]1 | 6.13
O=C1CCN(S(=O)(=O)c2ccccc2)N1 | 11.8
O=C(O)CCCC(=O)Nc1ccc(C(=O)N2CCCCC2)cc1 | 13
Cc1cc(C(F)(F)F)c(C#N)c(N2CCOCC2)n1 | 0.286
COc1ccc(N2Cc3ccccc3C2=NC(=O)c2ccc(C)cc2)cc1OC | 13.6
CC1CN(S(=O)(=O)c2cccc(C(=O)NCC3COc4ccccc4O3)c2)CC(C)O1 (stereo not shown) | 0.895
CCOC(=O)CSc1nc(-c2ccccc2)nc2ccccc12 | 9.83
CC(=O)NC(CC(=O)NCC(c1ccco1)N(C)C)c1ccccc1 (stereo not shown) | 7.6
CCCn1c(NCc2cc(OC)ccc2OC)nc2ccccc21 | -19.7

SMILES | hERG current change (%, negative = inhibition) at 1uM [%]
COc1ccc2[nH]cc(S(=O)(=O)c3ccc(C(C)C)cc3)c(=O)c2c1 | 13.6
CC/C=C/C(=O)N1CC2(CC(c3cccc(NC(=O)CC(c4ccccc4)c4ccccc4)c3)=NO2)C[C@@H]1C(N)=O (stereo partly shown) | 15.5
O=C(OCCN1C(=O)c2cccc3c(N4CCOCC4)ccc(c23)C1=O)c1ccc(Cl)cc1Cl | 11.4
Cn1nc(C(F)(F)F)cc1C(=O)O | 17.3
CCc1ccc(NC(=O)C(C)OC(=O)c2ccc(NS(=O)(=O)c3ccc(C)c([N+](=O)[O-])c3)cc2)cc1 (stereo not shown) | 6.26
CCOC(=O)C(=CNc1cc(C)nn1-c1ccc(Cl)cc1)C(=O)OCC | 19.5
CCn1cc(CN2CCCC(CNS(=O)(=O)Cc3ccccc3)C2)cn1 (stereo not shown) | 2.78
COc1ccc(S(=O)(=O)N2CCCc3ccccc32)cc1[N+](=O)[O-] | 9.51
O=[N+]([O-])c1cccc(N=Cc2sc3ccccc3c2O)c1 | 9.85
Cl.Nc1ccc(N)c(C(=O)O)c1 | 13.5
O=C(NCC1CC1)Nc1ccccc1F | 9.92
CCOc1ccccc1NC1=CC(=O)CC(c2ccccc2)C1 (stereo not shown) | -0.759
COC(=O)Cn1c(=NC(=O)c2nc3ccccc3s2)sc2cc(S(N)(=O)=O)ccc21 | 10.8
Cc1nnc(SCC(=O)Nc2cccc(C(F)(F)F)c2)[nH]c1=O | 12.1
CCc1ccccc1S(=O)(=O)Cc1ccc(C(=O)NCc2cccs2)o1 | -0.23
O=C(O)c1ccc(-c2noc(-c3cccc(F)c3)n2)cc1 | 12.7
CN(c1cccc(NC(=O)CN(c2cccc(F)c2)S(C)(=O)=O)c1)S(C)(=O)=O | 11.3
CC(C)(C)NC[C@H](O)COc1cccc2c1CCCC2=O.Cl | 11.6
COc1ccc(/C=C/c2nc(N)nc(-c3ccccc3O)n2)cc1OC | 2.24
O=S1(=O)CC2SC(=S)N(c3ccccc3)C2C1 (stereo not shown) | 10.7
CCn1c(SCC(=O)Nc2sc3c(c2C#N)CCC(C(C)(C)C)C3)nnc1-c1ccco1 (stereo not shown) | 14.1
Cc1ccc(N/N=C/C=C/c2ccco2)cc1 | 12.3
COC(=O)c1ccc(N/C(=N/S(=O)(=O)c2ccccc2)c2ccccc2)cc1 | 2.32
